The supplement of paper PMC4967469
A lower IC50 marks a more sensitive line; a limit (>, <) means that the fit lies beyond the doses tested. AUC sums up the same curve from the lowest dose to the 256-fold higher top dose; values near 1 show little effect. For part of these data: The top dose, if marked as inferred, was calculated from the reported fits. For part of these data: An entry number marks a drug with two screens in the source, which often give different values.

Experiments:
Assay in all cases: Viability of human cancer cell lines after 72 h of drug (GDSC screen)
AZ628 = compound: Cc1ccc(NC(=O)c2cccc(C(C)(C)C#N)c2)cc1Nc1ccc2ncn(C)c(=O)c2c1 [AZ628]; settings: top dose 4 µM; top dose inferred
Procedure: (§1)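 Human cancer cell lines in 384-well plates, medium with 10% serum, drug for 72 h over a 256-fold dose range (nine 2-fold or five 4-fold steps up to the top dose). Adherent lines were fixed and stained with the nucleic acid dye Syto60, suspension lines read with resazurin; signal relative to control wells, capped at 0 and 100%. One two-parameter sigmoid per drug and line, fitted in a mixed model over all curves with the slope shared within a line.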

AZD6244 = compound: Cn1cnc2c(F)c(Nc3ccc(Br)cc3Cl)c(C(=O)NOCCO)cc21 [AZD6244]; settings: top dose 4 µM; screen: GDSC drug entry 1498; top dose inferred
Procedure: as §1

AS601245 = compound: N#CC(c1ccnc(NCCc2cccnc2)n1)c1nc2ccccc2s1 [AS601245]; settings: top dose 8 µM; top dose inferred
Procedure: as §1

EX-527 = compound: NC(=O)C1CCCc2c1[nH]c1ccc(Cl)cc21 [EX-527]; settings: top dose 20 µM
Procedure: as §1

YM201636 = compound: Nc1ccc(C(=O)Nc2cccc(-c3nc(N4CCOCC4)c4oc5ncccc5c4n3)c2)cn1 [YM201636]; settings: top dose 5.12 µM; top dose inferred
Procedure: as §1

| Cell Line | AUC (AZ628) | IC50 (AZ628) [µM] | AUC (AZD6244) | IC50 (AZD6244) [µM] | AUC (AS601245) | IC50 (AS601245) [µM] | AUC (EX-527) | IC50 (EX-527) [µM] | AUC (YM201636) | IC50 (YM201636) [µM] |
| --- | --- | --- | --- | --- | --- | --- | --- | --- | --- | --- |
| MPP-89 (mesothelioma, adherent) | 0.78 | 2.2 | 0.932 | > 4 | 0.796 | 5.1 | 0.981 | > 20 | 0.942 | > 5.12 |
| MRK-nu-1 (breast, suspension) | 0.945 | > 4 | 0.976 | > 4 | 0.874 | 6.72 | 0.99 | > 20 | 0.851 | 3.43 |
| MS-1 (small cell lung carcinoma, suspension) | 0.975 | > 4 | 0.99 | > 4 | 0.942 | > 8 | 0.991 | > 20 | 0.887 | 4.67 |
| MV-4-11 (leukaemia, suspension) | 0.79 | 1.45 | 0.776 | 1.31 | 0.652 | 1.21 | 0.984 | > 20 | 0.964 | > 5.12 |
| MZ1-PC (pancreas, adherent) | 0.497 | 0.245 | 0.726 | 1.3 | 0.796 | 4.83 | 0.98 | > 20 | 0.861 | > 5.12 |
| MZ2-MEL (melanoma, adherent) | 0.617 | 0.555 | 0.815 | 2.7 | 0.839 | 6.88 | 0.977 | > 20 | 0.762 | 2.13 |
| MZ7-mel (melanoma, adherent) | 0.43 | 0.16 | 0.392 | 0.125 | 0.874 | > 8 | 0.978 | > 20 | 0.833 | 3.48 |
| Mo-T (hairy cell leukaemia, suspension) | 0.988 | > 4 | 0.95 | > 4 | 0.929 | > 8 | 0.98 | > 20 | 0.823 | 3.11 |
| NALM-6 (B-cell leukaemia, suspension) | 0.963 | > 4 | 0.978 | > 4 | 0.772 | 2.6 | 0.989 | > 20 | 0.596 | 0.559 |
| NAMALWA (Burkitt lymphoma, suspension) | 0.936 | > 4 | 0.984 | > 4 | 0.944 | > 8 | 0.991 | > 20 | 0.82 | 2.35 |
| NB1 (neuroblastoma, semi-adherent) | 0.892 | > 4 | 0.924 | > 4 | 0.863 | > 8 | 0.97 | > 20 | 0.89 | > 5.12 |
| NB5 (neuroblastoma, adherent) | 0.765 | 1.48 | 0.759 | 1.41 | 0.929 | > 8 | 0.982 | > 20 | 0.801 | 2.53 |
